# Data: the supplement of paper PMC10338343
# ± gives the standard deviation. The entries are a selection whose mix differs from that of the whole data set.
# Tested on: MIWI (PIWIL1) piRISC loaded with L1MC piRNA (30 nt)
# Assay: pre-steady-state target cleavage rate (min^-1); MIWI and MILI are mouse PIWI proteins and EfPiwi is from a freshwater sponge; tags in brackets are library labels; higher = faster piRNA-guided slicing of the target
# Settings: guide: L1MC piRNA 5'p-UAACUAAAUACUAUGCAAGCUGUAGGUCCU; auxiliary factor: 500 nM mouse GTSF1
# Summary of the method: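 The pre-steady-state cleavage rate was obtained by Cleave-'n-Seq with a burst-and-steady-state fit. A transcribed, DNA-blocked target RNA library (0.1 nM) was mixed with 1 nM active affinity-purified piRISC carrying one synthetic guide, with or without 500 nM GTSF1 partner protein, in HEPES–potassium acetate buffer at 33 °C for 0–8 or 0–960 min. Uncleaved targets were sequenced and normalised to depth and to weakly complementary targets, with three trials pooled and k3 capped at 0.0001 min^-1.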
row,Sequence,pre-steady-state target cleavage rate
1,UCCUGCUACAGCAUGCAUAGUAUUUAGAAA,0.324 ± 0.053
2,UCCUGGAUGUCGUUGCAUAGUAUUUAUUUA,0.00442 ± 0.0038
3,UCCUGGAUGUGCUUGCAUUGUAAUUAGUUA,0.00438 ± 0.0035
4,UGGACCUACAGGAUGCAUAGUAUUUACAAA,0.216 ± 0.039
5,UCCUGGUACAGCUUGGUAAGUAUUUAGUUA,0.0196 ± 0.005
6,UCCUGGUACAGCUUGCAUAGUAAAAACAAA,0.0337 ± 0.014
7,AGGACCUACAGCUACCAUAGUAUUUAGAAA,0.146 ± 0.034
8,UCCUGCUACAGCUUGCAUAGGUAUUUAGUUA,0.00816 ± 0.005
9,UCGACCUACACGUUGCAUAGUAUUUUCAAA,0.224 ± 0.036
10,UCCUGGUACAGCUUGCAUAGAAUUUACAAA,0.0317 ± 0.014
11,UCGACCUACAGCUUGCAUAGUUAAUAGUAA,0.0939 ± 0.021
12,UCCUCGAACAGCUUGCAUAGUAUUUUCAAA,0.308 ± 0.04
13,AGGACCUACAGCUUCCAUAGUUUUUAGUUA,0.0451 ± 0.016
14,UCCUGGAACAGCUUGCAUUCUAUUUAGUAA,0.0298 ± 0.01
